Reference: PubChem BioAssay (NCI)
Values joined by “and” are separate entries in the source; they are usually repeats but may differ in a detail not shown here. Identical values can stand only once.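 Values below derive from 48-hour exposures of cells grown in 96-well plates, with endpoints linearly interpolated between the two concentrations bracketing the appropriate inhibition level. The concentration for 50% growth inhibition is given as GI50. TGI marks complete inhibition of growth.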 Peptide text beside a SMILES is read from it. * marks the point of attachment. X24 = Clc1c(Cl)c(Cl)c(O*)c(Cl)c1Cl; Boc = CC(C)(C)OC(=O)*; OBn = c1ccc(CO*)cc1; Bn = c1ccc(C*)cc1

Tested on: NCI-H322M lung
Assay: growth of human tumour cells (NCI), 48 h

Clc1ccccc1NN(Cc1ccccn1)c1ccccc1Cl
TGI: 57.2 µM

COc1cc(-c2oc3ccccc3c(=O)c2O)cc(OC)c1OC
TGI: > 100 µM

COc1cc(Nc2ccnc(N3CCN(c4ccnc5cc(Cl)ccc45)CC3)n2)cc(OC)c1
GI50: 0.456 µM | TGI: > 100 µM

CC(C)c1cccc(C(C)C)c1NC(=O)C(=O)C(C(=O)c1ccccc1-c1ccccc1)C1OC(=O)c2ccccc21 (stereo not drawn)
TGI: 32.6 µM

CC(CO)[C@H]1OC(=O)C=C2[C@@]13O[C@@H]3[C@H]1OC(=O)[C@@]3(C)[C@H]4O[C@H]4C[C@@]2(C)[C@@H]13 (stereo partly drawn)
TGI: > 27 µM

CNC(=S)NNc1ncnc2c1c(-c1ccc(Cl)cc1)cn2-c1ccc(C)cc1
TGI: 25.2 µM

Nc1cc(N)c2nc(-c3ccccc3)c(Oc3ccc(F)cc3)nc2c1
GI50: 16.9 µM | TGI: 36.9 µM

CCCCCCCCCCCCNC(=O)CCC(NC(=O)c1ccc(N(C)Cc2cnc3nc(N)nc(N)c3n2)cc1)C(=O)NCCCCCCCCCCCC (stereo not drawn)
TGI: > 100 µM

Fc1cccc(COc2ccc(Nc3ncnc4sc(-c5ccco5)cc34)cc2Cl)c1
GI50: > 25 µM | TGI: > 25 µM

CC(C)CC(NC(=O)C(CCC(=O)OCc1ccccc1)NC(=O)OC(C)(C)C)C(=O)NC(COCc1ccccc1)C(=O)NC(Cc1ccccc1)C(=O)Oc1c(Cl)c(Cl)c(Cl)c(Cl)c1Cl (stereo not drawn) (Boc-E(OBn)LS(Bn)F-X24; configuration not given here)
TGI: > 100 µM

NC(Cc1[nH]nc2ccccc12)C(=O)O (stereo not drawn)
TGI: > 100 µM

O=c1ccn(-c2ccccn2)c(=O)n1-c1ccccn1
TGI: > 100 µM

C[C@H](c1ccccc1)N1C(=O)[C@@H](OCc2ccccc2)[C@H]1[C@H](COC(=O)COCc1ccccc1)OCc1ccccc1
TGI: > 100 µM

NC(N)=NS(=O)(=O)c1ccc(NC(=O)c2cccc3c(NNc4ccc(S(N)(=O)=O)cc4)c4ccccc4nc23)cc1
TGI: > 100 µM

Cc1cc(OCc2nnc3sc(NC(=O)c4ccccc4)nn23)ccc1Cl
TGI: > 100 µM

O=c1nc(-c2ccccc2)c2c3c(cccn13)CCC2
TGI: > 100 µM

CCCCCCCCCCCCOCCOCCOCCOCCOCCOCC(=O)NC(Cc1ccccc1)C(=O)Oc1ccc([N+](=O)[O-])cc1 (stereo not drawn)
TGI: > 100 µM

COc1ccc2nc(-c3ccccc3)cc(Nc3cccc(/C(C)=N\O)c3)c2c1
GI50: 2.85 µM | TGI: 9.68 µM

S=c1[nH]nc(Cn2c3ccc(Br)cc3c3nc4ccccc4nc32)n1C1CCCCC1
TGI: > 100 µM

CSc1ccc(C2=Nn3c(nnc3-c3ccc(F)c(Cl)c3)SC2)cc1
GI50: 26 µM | TGI: > 100 µM

Cc1nnc2n1-c1ccccc1N(Cc1ccccc1)CC2
TGI: > 100 µM

CCOc1ccc(NCC2CC/C(=C\C=C\c3ccccc3)C2=O)cc1 (stereo not drawn)
TGI: > 100 µM

N#CC(C#N)SCc1ccccc1
TGI: > 100 µM

N#Cc1nc(CCCN2C(=O)c3ccccc3C2=O)oc1N
TGI: > 100 µM

O=C1[C@@H](c2ccc(Cl)cc2)[C@H]2CC=C[C@H]2N1O
TGI: > 100 µM

CC(=O)N(CCN)CCN
TGI: > 10 µM

N/C(=N\OC(=O)c1ccccc1)C(C(=O)NOC(=O)c1ccccc1)C1CCCCC1 (stereo not drawn)
GI50: 15.1 µM | TGI: 59.9 µM

N=C(N)SCc1cn2ccccc2n1
TGI: > 100 µM

CN(C)CCNc1c([N+](=O)[O-])sc2ccc(Cl)cc12
TGI: > 100 µM

NS(=O)(=O)c1ccc(N2Cc3cc(Cl)ccc3OC3=C2C(=O)N(CC2CCCCC2)C3=O)cc1
GI50: 1.78 µM | TGI: 4.11 µM

CC1(C)CCC(C)(C)c2cc(C(=O)Nc3ccc(C(=O)O)cc3)ccc21
TGI: > 87.1 µM

O=C1c2ccccc2N2OC3(N4CCCC4)CCCC3C12c1ccccc1 (stereo not drawn)
TGI: > 100 µM

Cc1cccc(NC(=O)c2sc3nc4c(cc3c2N)CCCC4)c1C
GI50: 0.719 µM | TGI: > 100 µM

Nc1nncc2[nH]cnc12
TGI: > 100 µM

Cn1nc2c(c1N)Cc1c(nn(C)c1N)-c1ccccc1-2
TGI: > 100 µM

COc1cc2c3c(cc(Cl)nc3c1OC)C(=O)C(=O)N2
TGI: 31.5 µM

O=C1CS/C(=N/N=C/c2cn(Cc3ccc(Cl)cc3Cl)c3ccccc23)N1
TGI: > 100 µM

CCN(CCCCCCCCCCN1CC(=O)N(CCCCCCCCCCN(CC)Cc2ccccc2OC)CC1=O)Cc1ccccc1OC
GI50: 3.51 µM | TGI: 12.6 µM

Cc1cn(CCCCCOC(=O)NC(CCCNC(N)=O)C(=O)O)c(=O)[nH]c1=O (stereo not drawn)
TGI: > 100 µM

O=C1N/N=C\c2ccc(cc2)OCc2cccc(n2)COc2ccc(cc2)/C=N\NC1=O
TGI: > 25 µM

CCCO/N=[N+](\[O-])N(CC)CC
TGI: > 100 µM

Cc1cc(S(=O)(=O)Nc2n[nH]c(Nc3ccccc3)n2)c(SCC(=O)O)cc1Cl
TGI: > 100 µM

CCOC(=O)/C=C(/C=C\COC1CCCCO1)c1ccccc1 (stereo not drawn)
TGI: > 100 µM

COc1ccc(OC)c(NC(=O)C(=O)C(C(=O)c2ccccc2F)C2OC(=O)c3ccccc32)c1 (stereo not drawn)
TGI: > 100 µM

CCC1(Br)C(=O)NC(=O)N(C2CC(O)C(CO)O2)C1N=[N+]=[N-] (stereo not drawn)
TGI: > 100 µM

O=C(Nc1ccc(OC(F)(F)F)cc1)c1sccc1NCc1ccnc2ccccc12
GI50: 3.83 µM | TGI: > 87.9 µM

CN1CCCN(CCNc2nccc(-c3c(-c4cccc(O)c4)nc4sccn34)n2)S1(=O)=O
GI50: 4.42 µM and 8.03 µM | TGI: 75 µM and > 100 µM

CC(=O)OC1CC2(O)C(CCC3(C)C(c4ccc(=O)oc4)CCC32O)C2(C)C1=CC(O)C1OC12 (stereo not drawn)
TGI: 0.127 µM

Cc1nc2c(n1CC(C)(C)C)C(=O)c1ccccc1C2=O
TGI: > 100 µM

CC(C)N(C(=O)C12C3C4C1C1C2C3C41C(O)C(C)(C)C)C(C)C (stereo not drawn)
TGI: > 50 µM

CCOc1snc(C(Cl)(Cl)Cl)c1Cl
TGI: > 100 µM

CC1=C(C(=O)NC2CCCCC2)CC(C(=O)NC2CCCCC2)=C(C)N1
TGI: > 100 µM

CN(C)c1ccc(/C=c2/c3ccccc3n3c2cc(-c2ccccc2)[n+]3C)cc1
TGI: 2.59 µM

CC1(C)N=C(N)N=C(N)N1c1ccc(CCc2ccccc2)c(Cl)c1
GI50: 0.0968 µM | TGI: 19.6 µM

Cc1ccc(C(=O)/C(=C/c2ccc([N+](=O)[O-])cc2)S(=O)Cc2ccccc2)cc1 (stereo not drawn)
GI50: 1.73 µM | TGI: 3.47 µM
